Test results published in ChEMBL document CHEMBL4888484, “Replenishing the malaria drug discovery pipeline: Screening and hit evaluation of the MMV Hit Generation Library 1 (HGL1) against asexual blood stage Plasmodium falciparum ,using a nano luciferase reporter read-out” (2022).
Where “and” joins values, the source holds several entries; their conditions need not be identical. Equal entries are not always repeated. Among all 150,000 compounds or so, about 540 (0.36%) showed an effect of 50% or more. Some of the results follow.

Test system: Plasmodium falciparum
Test: Primary screen in NF54 nanoGlo assay, in single point, at 2uM, 72h; a lower Z score goes with more inhibition
Assay type: functional, Erythrocyte
Details: timepoint 72 hour

Row | SMILES | % Inhibition | Z score | % Inhibition (2 µM) | Z score (2 µM)
1 | COc1cnc(NC(=O)NCCN2CCO[C@@H](C)C2)s1 | 0% | 0 |  | 
2 | COCCNC(=O)CCNCc1cc(-c2ccccc2)cs1 | 4% | -0.57 |  | 
3 | CS(=O)(=O)N[C@H]1CCCN(c2ncc(-c3ccccc3)s2)C1 | 36% | -5.19 |  | 
4 | COc1cc(OC)nc(Oc2cccc(OC)c2C(=O)NS(=O)(=O)C(C)C)n1 | -5% | 0.7 |  | 
5 | Cc1ccc(N2C[C@@H](c3noc(-c4ccc(OC(F)(F)F)cc4)n3)CC2=O)cc1 | -20% | 1.86 |  | 
6 | O=C(Nc1nnn[nH]1)C(O)(c1ccccc1)c1ccccc1 | 8% | -1.65 |  | 
7 | Cc1[nH]c2ccccc2c1C1CCN(C(=O)CCc2ncc[nH]2)CC1 | -4% | 0.74 |  | 
8 | O=C(COc1ccc(Cl)cc1Cl)NC1CCC(CC2CCC(NC(=O)COc3ccc(Cl)cc3Cl)CC2)CC1 (stereo unspecified) | 11% | -1.33 |  | 
9 | OC[C@H]1CN(CCn2ccc3cc(Cl)ccc32)CCC1(F)F | -5% | 0.69 |  | 
10 | Cc1nc(N2CCCC(C(=O)NCC3COc4ccccc4O3)C2)nc2cc(S(C)(=O)=O)ccc12 (stereo unspecified) | -3% | 0.6 |  | 
11 | COc1ccccc1CC(=O)Nc1cc(S(=O)(=O)N2CCOCC2)ccc1OC | -2% | 0.21 |  | 
12 | OCC1(Cn2cnc3c(N(CC4CC4)C4CCCCC4)ncnc32)COC1 | 1% | -0.2 |  | 
13 | O=C(NCCCC[C@H]1CCCO1)C1CCOCC1 | -5% | 0.87 |  | 
14 | Cc1cc(NC(=O)c2ccsc2)no1 | -5% | 0.72 |  | 
15 | O=C(CCc1nc([C@@H]2CCCN2Cc2ccc3[nH]ccc3c2)no1)N1CCCC1 | -20% | 2.34 |  | 
16 | Cc1cnc(C2CCOCC2)n1CC1CCN(C(=O)c2cccs2)CC1 | -4% | 0.55 |  | 
17 | CCC(CC)(CNC(=O)C1C[C@H]2C[C@@H](N)[C@H]2C1)C(F)(F)F (stereo partly specified) | -2% | 0.24 |  | 
18 | CN(C(=O)C(F)(F)F)c1ccc(-c2nnc(NC(=O)c3ccc(Cl)cc3)s2)cc1 | 8% | -1.11 |  | 
19 | CC(=O)N1CCc2sc(S(=O)(=O)Nc3cccc(Cl)c3C)cc2C1 | 10% | -1.94 |  | 
20 | COc1ccc2c(c1)N(C(=O)c1cccc(C(=O)O)n1)CCCC2 | -2% | 0.26 |  | 
21 | CC(C)[C@@H](CO)NC(=O)Nc1nccc(C(C)(C)C)n1 | -9% | 1.14 |  | 
22 | O=C(CCc1cc2n(n1)CCNC2)NC[C@H](O)c1cc2ccccc2s1 | 6% | -0.78 |  | 
23 | CN(C[C@H]1COCCO1)C(=O)c1ccc(-c2ccc3c(=O)[nH]ccc3c2)cc1 | -2% | 0.28 |  | 
24 | O=C(NCC1CCCN(C(=O)C2CC3CCC2C3)C1)Nc1cccc(F)c1 (stereo unspecified) | 36% | -5.18 |  | 
25 | Cc1cccc(OCC(O)CN2CCC(c3ccccc3)C2)c1 (stereo unspecified) | -2% | 0.32 |  | 
26 | Cc1ccc(NC(=O)C(F)(F)F)cc1Cl | -37% | 4.39 |  | 
27 | CCOc1nnc(CN2CCC[C@@H]2Cn2cncn2)s1 | -6% | 1.19 |  | 

Row | SMILES | % Inhibition | Z score | % Inhibition (2 µM) | Z score (2 µM)
28 | O=C(c1ccc2[nH]ccc2c1)N1CCC(N2CC3(CCCCC3)[C@H]2c2ccccc2)CC1 | 0% | -0.02 |  | 
29 | COc1ccccc1NC(=O)C(=O)c1cccn1Cc1ccc(C)c(C)c1 | -7% | 0.83 |  | 
30 | Cn1nccc1C1(O)CCN(C(=O)OCC(F)(F)F)CC1 | -14% | 2.63 |  | 
31 | C#CCN(Cc1noc(C2CC2)n1)S(C)(=O)=O | -7% | 1.43 |  | 
32 | COc1ccc(CNC(=O)N2CC[C@H](n3c(=O)n(C)c4cccnc43)C2)cc1 | 4% | -0.5 |  | 
33 | c1cc(Cn2cccn2)cc(-c2nccn2C[C@H]2COCCO2)c1 | 4% | -0.58 |  | 
34 | Cc1ccc(-n2cc3c(c2-c2ccccc2)c(=O)n(-c2ccccc2)n3C)cc1 | -2% | 0.25 |  | 
35 | COc1ccccc1N(C)Cc1c(C)noc1C | 7% | -0.98 |  | 
36 | C=CC[C@@H]1N(C(=O)c2ccc(S(N)(=O)=O)cn2)CCCC1(C)C | -6% | 0.97 |  | 
37 | Cc1cccc(CC(=O)N2C[C@@H](CN3CCCCC3)[C@@H](CO)C2)c1 | -12% | 1.83 |  | 
38 | COc1ccc(-n2cc3ccccc3c2C)cc1 | -37% | 4.3 |  | 
39 | O=C1C[C@H](c2ccc(O)cc2)c2c(n(C3CCCCCCC3)[nH]c2=O)N1 | -7% | 0.86 |  | 
40 | CC(C)CN1CCCN(Cc2[nH]c3ccccc3c2Cl)CC1 | 5% | -0.73 |  | 
41 | CCCCC(=O)NS(=O)(=O)Cc1cc(Cl)ccc1F | -7% | 0.99 |  | 
42 | COc1ccc(-n2c(=O)c3ccccc3n(CC(=O)NC3CCCC3)c2=O)cc1OC | -8% | 1.08 |  | 
43 | CCC1(CC)CCN(C(=O)c2cc(CN3CCC[C@H](O)C3)on2)C1 | -10% | 1.73 |  | 
44 | Cc1ccccc1C(=O)N(Cc1ccc(F)cc1)c1cccc(CC(=O)NC[C@H]2CCCO2)c1 | 1% | -0.14 |  | 
45 | O=C(C1C2C(=O)N(Cc3cccnc3)C[C@@]23C=C[C@@H]1O3)N1CCC(F)(F)CC1 (stereo partly specified) | -7% | 0.93 |  | 
46 | COc1ccc(-c2nccc(N(C)C)n2)c(OC)c1OC | 3% | -0.44 |  | 
47 | CN1C(=O)c2cc(NC(=O)C3CCCCC3)ccc2Oc2ncccc21 | -17% | 1.85 |  | 
48 | O=C1N=C(c2ccc(F)cc2)N[C@H]2CCN(C(=O)Cc3ccccc3)C[C@H]12 | -2% | 0.24 |  | 
49 | COc1ccc(CCNC(=O)CN2CCN(c3nccnc3C#N)CC2)cc1 | -9% | 1.05 |  | 
50 | O=C(NC1CC1)c1cccc(NS(=O)(=O)c2ccc(F)cc2F)c1 | 3% | -0.36 |  | 
51 | CCn1nc(C)c(CNc2nnc(CC3CCCC3)o2)c1C | -4% | 0.41 |  | 
52 | CN(CCN1CCCC1=O)C(=O)c1ccc(F)cc1OC(F)F | -3% | 0.54 |  | 
53 | O=C1c2ccccc2N=C(O)[C@@H]2CCCCN12 |  |  | -3% and -4% | 0.53 and 0.49
